# According to PubChem BioAssay AID588501 (NMMLSC, 2011):
# Out of some 360,000 compounds screened, about 420 (0.12%) were called active. Inconclusive results, whose numbers are uncertain, are shown with a selection of clear calls. Cut-off read from the data, not from the text of the source: active = inhibition above about 30%; inconclusive = no clear call, values can overlap the other calls; inactive = below that.
# Biological target: Lethal factor (Bacillus anthracis) (UniProt P15917)
# Assay: anthrax lethal factor cleavage blockers – biochemical, multiplex microsphere, MLPCN library, primary screen (AID 588501); note: plate controls were buffer without enzyme for full effect and enzyme alone for no effect
# Conditions: multiplex microsphere protease cleavage assay, LF; at 10 µM; stronger effect = higher value
# Sequence of UniProt P15917 (P15917 whole entry, looked up): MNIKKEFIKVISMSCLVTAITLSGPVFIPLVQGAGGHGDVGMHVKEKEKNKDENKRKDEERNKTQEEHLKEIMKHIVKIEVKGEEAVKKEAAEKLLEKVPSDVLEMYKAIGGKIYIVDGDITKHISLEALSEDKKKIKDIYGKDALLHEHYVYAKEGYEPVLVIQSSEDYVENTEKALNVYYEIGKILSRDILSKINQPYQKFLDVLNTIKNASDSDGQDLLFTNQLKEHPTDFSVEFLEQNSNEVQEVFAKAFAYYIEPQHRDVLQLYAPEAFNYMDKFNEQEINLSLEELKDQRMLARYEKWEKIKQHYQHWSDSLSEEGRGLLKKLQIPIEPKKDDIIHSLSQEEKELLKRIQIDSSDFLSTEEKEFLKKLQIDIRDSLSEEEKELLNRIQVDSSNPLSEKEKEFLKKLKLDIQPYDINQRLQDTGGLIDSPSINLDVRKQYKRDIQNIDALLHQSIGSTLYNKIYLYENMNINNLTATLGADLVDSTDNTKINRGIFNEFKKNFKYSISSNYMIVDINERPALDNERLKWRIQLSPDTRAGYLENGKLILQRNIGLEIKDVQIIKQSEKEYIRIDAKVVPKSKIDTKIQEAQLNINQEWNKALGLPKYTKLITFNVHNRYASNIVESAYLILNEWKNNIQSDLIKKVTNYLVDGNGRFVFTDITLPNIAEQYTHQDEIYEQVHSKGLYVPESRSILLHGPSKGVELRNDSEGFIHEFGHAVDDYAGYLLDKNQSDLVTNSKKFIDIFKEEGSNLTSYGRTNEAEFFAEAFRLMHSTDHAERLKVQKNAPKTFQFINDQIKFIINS
row,SMILES,inhibition
1,COc1cccc(NC(=O)CN(C)C(=O)Cc2cccc3ccccc23)c1,inconclusive: -0.8%
2,O=C(CCNC(=O)c1ccc(Cl)cc1)Nc1cccc(S(=O)(=O)N2CCCCCC2)c1,inconclusive: -4.1%
3,Cc1sc2ncnc(N3CCC(C(=O)Nc4nnc(SCc5ccccc5F)s4)CC3)c2c1C,inconclusive: -1%
4,COc1ccc(C2C(C(=O)c3ccccc3)N3c4ccccc4C=CC3C2[N+](=O)[O-])cc1 (stereo not drawn),inconclusive: -17.8%
5,COCC(C)n1c(-c2ccc3c(c2)NC(=O)CO3)csc1=Nc1ccc(OC(F)F)cc1 (stereo not drawn),inconclusive: 1%
6,O=C1c2ccccc2NC2(CCCCC2)N1c1ccc(O)cc1,active: 53.9%
7,CCOC(=O)C1=C(C)Nc2ccccc2N=C1NC(=O)c1cccc(S(=O)(=O)NCc2ccccc2)c1,inconclusive: -22%
8,Cn1c(=O)cc(OCCCC(=O)NCc2ccccn2)c2ccccc21,inconclusive: 9.4%
9,Cc1cc2c(NC(=O)Nc3ccccc3)cccc2nn1,inconclusive: 10.4%
10,COc1cc(NC(=O)C2CC(=O)NC3=C2C(=O)CC(C)(C)C3)c(OC)cc1Cl (stereo not drawn),inactive: -10%
11,COc1ccc2[nH]c(=O)c(C(c3nnnn3CC3CCCO3)N3CCc4ccccc4C3)cc2c1 (stereo not drawn),inconclusive: -14.3%
12,CCCCn1nc2cc(C(=O)NCc3ccccc3)ccc2c1OCC,inactive: -6.5%
13,Cc1nnc(NC(=O)CCC(=O)NCc2cccs2)s1,inconclusive: -30%
14,Cc1ccc(C(=O)Nc2ccc(CN3CCCCC3)cc2)c(C)c1,inactive: -3.1%
15,c1ccc(Oc2ccccc2-c2cc(NCCc3cccnc3)n3nccc3n2)cc1,inactive: -2.6%
16,CN(C(=O)CSc1nnc(Cc2cccs2)n1C1CC1)C1CCS(=O)(=O)C1 (stereo not drawn),inconclusive: 2.3%
17,Cc1ccc(NC(=O)Cc2ccc(Cl)cc2)nc1,active: 46.8%
18,Cc1ccccc1-n1c(SCc2c(C)noc2C)nnc1-c1ccncc1,inconclusive: -8.9%
19,CCN1C(=O)[C@@H]2[C@H](C1=O)[C@@H]1C(=O)Nc3ccccc3C(=O)N1[C@@H]2c1cccc(Cl)c1,inactive: -7.6%
20,Cc1cccc(NC(=O)C2CCCN2C(=O)NC2CCCCC2)c1 (stereo not drawn),inactive: -1.7%
21,Cc1ccccc1NC1=C/C(=N\S(=O)(=O)c2cccs2)c2ccccc2C1=O,inconclusive: -15.4%
22,CCc1ccc(NC(=O)N2CCCCCC2)cc1,inactive: -4.3%

row,SMILES,inhibition
1,COc1cc(/C=C/C=C2/CC/C(=C/C=C/c3ccc(O)c(OC)c3)C2=O)ccc1O,active: 34.3%
2,COc1ccccc1CNC(=O)C1CCN(Cc2nc(-c3cccc(Cl)c3)oc2C)CC1,inactive: -6%
3,CC1(C)CC(NC(=O)c2cccc([N+](=O)[O-])c2)CC(C)(C)N1,active: 29.9%
4,CCOc1ccc(NC(=O)CN2CCN(CC(=O)Nc3cccc(F)c3)CC2)cc1,inactive: -7.9%
5,COc1ccc(N(CC(=O)N/N=C/c2ccc(-c3ccc([N+](=O)[O-])cc3)o2)S(=O)(=O)c2ccc(C)cc2)cc1Cl,active: 44.2%
6,CCN(CC)S(=O)(=O)c1cc(NC(=O)C(C)N2CCc3ccccc32)ccc1C (stereo not drawn),inconclusive: -9%
7,CCOc1ccc(OCCC(=O)OCC(=O)c2c(N)n(C)c(=O)n(C)c2=O)cc1,inconclusive: 5.8%
8,Cc1cc(-c2nc3ccccc3o2)c2ccccc2n1,inconclusive: 4.8%
9,O=C(COC(=O)C1CCC1)NCc1ccc(Cl)cc1Cl,inconclusive: -5.9%
10,CC(C)(C)c1nc2ccccc2[nH]1,inconclusive: -21.9%
11,C[C@@H]([C@H](O)c1ccccc1)N(C)C(=S)Nc1ccccc1,inactive: -7.5%
12,CCOc1ccc(NC(=O)CN(C)C(=O)c2ccccc2OCc2cccc(C)c2)cc1OCC,inconclusive: -2%
13,CC1(C)Cc2c(C#N)c(N)n(-c3ccccc3)c(=S)c2CO1,inconclusive: -21.8%
14,CCN1CCN(c2nc(Nc3ccc(OC)cc3)nc(N)c2[N+](=O)[O-])CC1,inconclusive: -29.2%
15,O=C(c1cccs1)N(Cc1ccccn1)Cc1ccco1,inactive: -2.9%
16,Cc1ccc(SCC(=O)Nc2ccc(S(N)(=O)=O)cc2)cc1,inactive: -4.2%
17,O=C(Nc1ccc(Nc2ccccc2)cc1)c1c(F)c(F)c(F)c(F)c1F,active: 39.6%
18,Cc1ccc(-c2c(C)sc3nc[nH]c(=O)c23)cc1C,inactive: -4.3%
19,CCCc1cc(=O)[nH]c(SCCc2ccccc2)n1,inactive: -6.4%
20,O=C(NNc1cccc(Cl)n1)c1c(Cl)cccc1Cl,inconclusive: 9.7%
21,O=C(Nc1ccc(F)cc1)Nc1cccc(Br)c1,active: 32.2%
22,Cc1ccccc1-c1nnc(SCC(=O)Nc2ccc3c(c2)OCCO3)n1N,inconclusive: -2.1%

row,SMILES,inhibition
1,CC(=O)NCCc1ccc(C(=O)CSc2nnc(C3CC3)n2C2CC2)cc1,inactive: 4.2%
2,O=[N+]([O-])c1cc(C(F)(F)F)cc([N+](=O)[O-])c1NCCNC(=S)Nc1ccc(Cl)c(Cl)c1,inconclusive: -1.6%
3,Cc1cc(OCc2ccc(F)cc2)nc(-c2ccccc2O)n1,inconclusive: -5.9%
4,CN(C(=O)c1ccccc1C(=O)OCC(=O)Nc1ccc(OC(F)F)cc1)c1ccccc1,inconclusive: -0.5%
5,CC(=O)Oc1ccc(/C=N/NC2=NS(=O)(=O)c3ccccc32)cc1,inactive: -4.4%
6,Cc1ccc(S(=O)(=O)NCCC(=O)N2CCCCCCC2)cc1C,inconclusive: -4.4%
7,Oc1csc(Cc2nc(-c3ccccc3F)cs2)n1,inactive: -0.9%
8,Cc1nc(CSc2nnc3scc(-c4ccc(Cl)cc4)n23)cs1,inconclusive: -21.6%
9,O=C(O)CN(c1ccccc1[N+](=O)[O-])S(=O)(=O)c1ccccc1,inconclusive: -15.8%
10,Cc1cc2cc3c(cc2nc1SCC(=O)N1CCCC1)OCCO3,inactive: -2.2%
11,CCn1c(=O)c(C(=O)Nc2cccnc2)c(O)c2ccccc21,inactive: 4.5%
12,CCCCn1c(SCC(=O)Nc2ccccc2C(F)(F)F)nc2ccsc2c1=O,inconclusive: -6.9%
13,S=c1[nH]nc(CSCc2ccccc2Cl)n1-c1ccccc1,inconclusive: -16%
14,COc1ccc(CCCc2nnc(SCC(=O)Nc3nc(C)cs3)n2C)cc1,inactive: -16.9%
15,COCCCN1C(=O)c2[nH]nc(-c3cc(C)cc(C)c3O)c2C1c1ccc(O)c(OC)c1 (stereo not drawn),inconclusive: -6.5%
16,Cc1ccc(-c2nn(Cc3ccccc3)cc2C(=O)NCC2CCCO2)cc1 (stereo not drawn),inconclusive: -1.6%
17,Cc1noc(C)c1NC(=O)Nc1ccc2c(c1)C(=O)N([C@H](C)CO)C[C@H](C)[C@@H](CN(C)S(=O)(=O)c1ccc(Cl)cc1)OCCCC[C@@H](C)O2,inactive: 3.6%
18,COc1cc(/C=C(/C#N)c2ccccc2)ccc1Oc1ccc([N+](=O)[O-])cn1,inconclusive: -10.8%
19,CCOC(=O)C1CCCN(C(=O)c2cc(CN3C(=O)c4ccccc4C3=O)ccc2OC)C1 (stereo not drawn),inconclusive: 5.7%
20,COc1ccc(C(=O)NCCS(=O)(=O)N2CCCC2)cc1,inconclusive: 19.4%
21,CN(C)c1ccc(/C=N/NC(=O)c2nnn(-c3nonc3N)c2COc2ccc(F)cc2)cc1,active: 31.6%
22,O=C(CCN1CCC(c2cccs2)=N1)c1cccs1,inconclusive: -5.6%

row,SMILES,inhibition
1,CC(C)C(=O)Nc1ccc2nn(-c3ccccc3)nc2c1,inactive: 1.3%
2,Nc1c(C(=O)O)sc2nc3c(cc12)CCCC3,inconclusive: -8%
3,CCOC(=O)c1c2c(n(C)c1C)C(=O)C(=O)c1ccc(Br)cc1-2,inactive: 5.5%
4,Cc1cccc(NC(=O)C2CCCC2)c1,inconclusive: -163%
5,COc1ccccc1NC(=O)c1ccc(NC(=O)CN2C(=O)CN(C)C2=O)cc1,inactive: 6.4%
6,O=C(Nc1nnc(SCc2cccc(F)c2)s1)c1ccco1,inactive: 1.1%
7,CCN(CC)S(=O)(=O)c1ccc(Oc2ccc(S(=O)(=O)N(CC)CC)cc2)cc1,inconclusive: -14.3%
8,CCn1c2ccccc2c2nnc(SCC(=O)NC(CC(C)C)C(=O)OC)nc21 (stereo not drawn),inconclusive: -29.1%
9,CCOC(=O)c1nn(-c2ccc(C)cc2)c(=O)cc1OCC(=O)N1CCN(c2ccccc2)CC1,inconclusive: 16.6%
10,Cc1ccc(C(=O)N(CC(=O)NC2CCCC2)Cc2cccs2)s1,inconclusive: -7.4%
11,Cc1cccc2cc(/C=C3\N=C(c4ccccc4)OC3=O)c(N3CCOCC3)nc12,active: 65.1%
12,O=c1ccc2c(-c3ccccc3)c3ccc(O)cc3oc-2c1,active: 55.8%
13,O=C(O)c1ccc(-c2ccc(/C=c3/sc4nc5ccccc5n4c3=O)o2)cc1Cl,active: 133%
14,CCCn1c(SC(C)C(=O)NCC2CCCO2)nc2cc(Cl)ccc2c1=O (stereo not drawn),inconclusive: -2.7%
15,O=[N+]([O-])c1cccc(/C=N/Nc2nccnc2Cl)c1,inactive: 0.6%
16,CCc1nc(SCC(=O)N2CCCc3ccccc32)c2oc3ccccc3c2n1,inconclusive: -14.2%
17,Cc1cn2c(N)c(C=C3C=C(Cl)C(=O)C(Cl)=C3)c(=O)nc2s1,active: 32.2%
18,CSc1nnc2c(n1)c(C)nn2-c1cccc(C)c1,active: 52.9%
19,Cc1occc1C(=O)N/N=C/c1ccccc1[N+](=O)[O-],inconclusive: 9.6%
20,Cc1nn(-c2ccc(N3CCOCC3)nn2)c(C)c1CCC(=O)N1CCN(C)CC1,inconclusive: 3.4%
21,CC(=O)Nc1ccc(NC(=O)COC(=O)c2cc(S(=O)(=O)N(C)C)ccc2N2CCCC2)cc1,inconclusive: 0.1%
22,Cn1cnc(NCc2ccccc2)c1[N+](=O)[O-],inconclusive: -17.8%
